{
  "source": "the supplement of paper PMC8728848",
  "assay_in_all_cases": "glycan array binding signal (z-score within array); higher = stronger binding",
  "details_in_all_cases": "glycan notation: IUPAC condensed, linker removed",
  "key": {"Fuc(a1-2)Gal": {"target": "Fuc(a1-2)Gal", "in_short": "(§1)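 Negative Z-scores can be read as non-binding. The Z-score is calculated within each array and then averaged across arrays of one protein sequence at different concentrations or buffers and across linkers. Arrays, 3228 in all, were curated from the Consortium for Functional Glycomics database and kept only where the protein sequence was available.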"}, "Fuc(a1-2)Gal(b1-3)GalNAc": {"target": "Fuc(a1-2)Gal(b1-3)GalNAc", "in_short": "as §1"}, "[1]": {"target": "Fuc(a1-2)Gal(b1-3)GalNAc(a1-3)[Fuc(a1-2)]Gal(b1-4)Glc", "in_short": "as §1"}, "[2]": {"target": "Fuc(a1-2)Gal(b1-3)GalNAc(a1-3)[Fuc(a1-2)]Gal(b1-4)GlcNAc", "in_short": "as §1"}, "[3]": {"target": "Fuc(a1-2)Gal(b1-3)GalNAc(b1-3)Gal", "in_short": "as §1"}, "[4]": {"target": "Fuc(a1-2)Gal(b1-3)GalNAc(b1-3)Gal(a1-4)Gal(b1-4)Glc", "in_short": "as §1"}, "[5]": {"target": "Fuc(a1-2)Gal(b1-3)GalNAc(b1-4)[Neu5Ac(a2-3)]Gal(b1-4)Glc", "in_short": "as §1"}, "Fuc(a1-2)Gal(b1-3)GlcNAc": {"target": "Fuc(a1-2)Gal(b1-3)GlcNAc", "in_short": "as §1"}, "[6]": {"target": "Fuc(a1-2)Gal(b1-3)GlcNAc(b1-2)Man(a1-3)[Fuc(a1-2)Gal(b1-3)GlcNAc(b1-2)Man(a1-6)]Man(b1-4)GlcNAc(b1-4)GlcNAc", "in_short": "as §1"}, "[7]": {"target": "Fuc(a1-2)Gal(b1-3)GlcNAc(b1-2)Man(a1-3)[Fuc(a1-2)Gal(b1-3)GlcNAc(b1-2)Man(a1-6)]Man(b1-4)GlcNAc(b1-4)[Fuc(a1-6)]GlcNAc", "in_short": "as §1"}, "[8]": {"target": "Fuc(a1-2)Gal(b1-3)GlcNAc(b1-3)Gal(b1-4)Glc", "in_short": "as §1"}, "[9]": {"target": "Fuc(a1-2)Gal(b1-3)GlcNAc(b1-3)GalNAc", "in_short": "as §1"}, "[10]": {"target": "Fuc(a1-2)Gal(b1-3)GlcNAc(b1-3)[Fuc(a1-3)[Gal(b1-4)]GlcNAc(b1-6)]Gal(b1-4)Glc", "in_short": "as §1"}, "[11]": {"target": "Fuc(a1-2)Gal(b1-3)GlcNAc(b1-3)[Gal(b1-4)GlcNAc(b1-6)]Gal(b1-4)Glc", "in_short": "as §1"}, "[12]": {"target": "Fuc(a1-2)Gal(b1-3)GlcNAc(b1-3)[Gal(b1-4)[Fuc(a1-3)]GlcNAc(b1-6)]Gal(b1-4)Glc", "in_short": "as §1"}, "[13]": {"target": "Fuc(a1-2)Gal(b1-3)GlcNAc(b1-3)[Neu5Ac(a2-6)Gal(b1-4)GlcNAc(b1-6)]Gal(b1-4)Glc", "in_short": "as §1"}, "[14]": {"target": "Fuc(a1-2)Gal(b1-3)[Fuc(a1-4)]GlcNAc", "in_short": "as §1"}, "[15]": {"target": "Fuc(a1-2)Gal(b1-3)[Fuc(a1-4)]GlcNAc(b1-2)Man(a1-3)[Fuc(a1-2)Gal(b1-3)[Fuc(a1-4)]GlcNAc(b1-2)Man(a1-6)]Man(b1-4)GlcNAc(b1-4)GlcNAc", "in_short": "as §1"}, "[16]": {"target": "Fuc(a1-2)Gal(b1-3)[Fuc(a1-4)]GlcNAc(b1-3)[Fuc(a1-3)[Gal(b1-4)]GlcNAc(b1-6)]Gal(b1-4)Glc", "in_short": "as §1"}, "[17]": {"target": "Fuc(a1-2)Gal(b1-3)[Fuc(a1-4)]GlcNAc(b1-3)[Gal(b1-4)GlcNAc(b1-6)]Gal(b1-4)Glc", "in_short": "as §1"}, "Fuc(a1-2)Gal(b1-4)Glc": {"target": "Fuc(a1-2)Gal(b1-4)Glc", "in_short": "as §1"}, "Fuc(a1-2)Gal(b1-4)Glc6S": {"target": "Fuc(a1-2)Gal(b1-4)Glc6S", "in_short": "as §1"}, "Fuc(a1-2)Gal(b1-4)GlcNAc": {"target": "Fuc(a1-2)Gal(b1-4)GlcNAc", "in_short": "as §1"}, "[18]": {"target": "Fuc(a1-2)Gal(b1-4)GlcNAc(b1-2)Man(a1-3)[Fuc(a1-2)Gal(b1-4)GlcNAc(b1-2)Man(a1-6)]Man(b1-4)GlcNAc(b1-4)GlcNAc", "in_short": "as §1"}, "[19]": {"target": "Fuc(a1-2)Gal(b1-4)GlcNAc(b1-2)Man(a1-3)[Fuc(a1-2)Gal(b1-4)GlcNAc(b1-2)Man(a1-6)]Man(b1-4)GlcNAc(b1-4)[Fuc(a1-6)]GlcNAc", "in_short": "as §1"}, "[20]": {"target": "Fuc(a1-2)Gal(b1-4)GlcNAc(b1-2)[Fuc(a1-2)Gal(b1-4)GlcNAc(b1-4)]Man(a1-3)[Fuc(a1-2)Gal(b1-4)GlcNAc(b1-2)Man(a1-6)]Man(b1-4)GlcNAc(b1-4)GlcNAc", "in_short": "as §1"}, "[21]": {"target": "Fuc(a1-2)Gal(b1-4)GlcNAc(b1-3)Gal(b1-4)GlcNAc", "in_short": "as §1"}, "[22]": {"target": "Fuc(a1-2)Gal(b1-4)GlcNAc(b1-3)Gal(b1-4)GlcNAc(b1-3)Gal(b1-4)GlcNAc", "in_short": "as §1"}, "[23]": {"target": "Fuc(a1-2)Gal(b1-4)GlcNAc(b1-3)GalNAc", "in_short": "as §1"}, "[24]": {"target": "Fuc(a1-2)Gal(b1-4)GlcNAc(b1-3)[Fuc(a1-2)Gal(b1-4)GlcNAc(b1-6)]GalNAc", "in_short": "as §1"}},
  "note": "The other results are listed elsewhere or left out.",
  "data": [
    {"binder": "BC2L-A (Burkholderia cenocepacia), Q1BKJ8_BURCA (protein) ADSQTSSNRAGEFSIPPNTDFRAIFFANAAEQQHIKLFIGDSQEPAAYHKLTTRDGPREATLNSGNGKIRFEVSVNGKPSATDARLAPINGKKSDGSPFTVNFGIVVSEDGHDSDYNDGIVVLQWPIG", "values": [
      {"measurement": "glycan array binding signal (z-score)", "setting": "Fuc(a1-2)Gal", "result": -0.196},
      {"measurement": "glycan array binding signal (z-score)", "setting": "Fuc(a1-2)Gal(b1-3)GalNAc", "result": 0.042},
      {"measurement": "glycan array binding signal (z-score)", "setting": "[1]", "result": -0.219},
      {"measurement": "glycan array binding signal (z-score)", "setting": "[2]", "result": -0.22},
      {"measurement": "glycan array binding signal (z-score)", "setting": "[3]", "result": -0.268},
      {"measurement": "glycan array binding signal (z-score)", "setting": "[4]", "result": 0.286},
      {"measurement": "glycan array binding signal (z-score)", "setting": "[5]", "result": 0.357},
      {"measurement": "glycan array binding signal (z-score)", "setting": "Fuc(a1-2)Gal(b1-3)GlcNAc", "result": -0.204},
      {"measurement": "glycan array binding signal (z-score)", "setting": "[6]", "result": 0.726},
      {"measurement": "glycan array binding signal (z-score)", "setting": "[7]", "result": 0.386},
      {"measurement": "glycan array binding signal (z-score)", "setting": "[8]", "result": -0.207},
      {"measurement": "glycan array binding signal (z-score)", "setting": "[9]", "result": -0.215},
      {"measurement": "glycan array binding signal (z-score)", "setting": "[10]", "result": -0.215},
      {"measurement": "glycan array binding signal (z-score)", "setting": "[11]", "result": -0.217},
      {"measurement": "glycan array binding signal (z-score)", "setting": "[12]", "result": -0.063},
      {"measurement": "glycan array binding signal (z-score)", "setting": "[13]", "result": -0.219},
      {"measurement": "glycan array binding signal (z-score)", "setting": "[14]", "result": -0.226},
      {"measurement": "glycan array binding signal (z-score)", "setting": "[15]", "result": -0.074},
      {"measurement": "glycan array binding signal (z-score)", "setting": "[16]", "result": -0.22},
      {"measurement": "glycan array binding signal (z-score)", "setting": "[17]", "result": -0.167},
      {"measurement": "glycan array binding signal (z-score)", "setting": "Fuc(a1-2)Gal(b1-4)Glc", "result": -0.11},
      {"measurement": "glycan array binding signal (z-score)", "setting": "Fuc(a1-2)Gal(b1-4)Glc6S", "result": -0.139},
      {"measurement": "glycan array binding signal (z-score)", "setting": "Fuc(a1-2)Gal(b1-4)GlcNAc", "result": 0.167},
      {"measurement": "glycan array binding signal (z-score)", "setting": "[18]", "result": 0.306},
      {"measurement": "glycan array binding signal (z-score)", "setting": "[19]", "result": 0.226},
      {"measurement": "glycan array binding signal (z-score)", "setting": "[20]", "result": -0.1},
      {"measurement": "glycan array binding signal (z-score)", "setting": "[21]", "result": 0.237},
      {"measurement": "glycan array binding signal (z-score)", "setting": "[22]", "result": 0.018},
      {"measurement": "glycan array binding signal (z-score)", "setting": "[23]", "result": -0.217},
      {"measurement": "glycan array binding signal (z-score)", "setting": "[24]", "result": -0.205}
    ]}
  ]
}
